Experimental data as given in the supplement of paper PMC11125491.
± gives the standard deviation of the averaged measurements. Growth of baker's yeast expressing single-residue variants of Pneumocystis jirovecii dihydrofolate reductase in 8.8 or 44 µM methotrexate (about 75% and 90% inhibition of the wild type). Selection coefficient per generation; 0 = like wild type, above 0 = less sensitive, below 0 = more sensitive or loss of function. No active / inactive call per row; the paper calls resistant above 0.220 (8.8 µM) or 0.243 (44 µM) together with a significance test. At 44 µM about 15% of codons end with one read or none, so the lowest values are floors (replicate rank correlation 0.74; 0.94 at 8.8 µM).

B1: UniProt A0EPZ9; numbered along this chain (parent)
chain: MDWQKSLTLIVALTLSRGIGLKNDLPWKLKSDMMFFSRVTSGLLVTRSTGQMNVVLMGRKTWESLPAHSRPLKNRINVVISRQEVLDLGGGAYHARSLDDALALLSQIYDSTSKIQLNRVFVIGGGELCKAAMEHSRLNRIIATVIHNEVDCDVFFPIDFRSSQSCLPWRKQDHSVLEAWVGSKVPQGKINENGFIYEFEMWIRDI

Variants of: B1
Test: selection coefficient against synonymous wild-type codons (log2 per generation); higher = faster growth than wild type
Settings: with Saccharomyces cerevisiae carrying the variant on a plasmid
Description: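 Pooled growth of yeast carrying single-residue variants of P. jirovecii dihydrofolate reductase (own DFR1 gene intact), two passages at 30 °C, three cultures, sequenced before and after. Codons with under 15 starting reads are left out; codons of one change are averaged.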

Row | Variant | selection coefficient against synonymous wild-type codons (log2) (methotrexate 8.8 µM) | selection coefficient against synonymous wild-type codons (log2) (methotrexate 44 µM)
1 | S41Y | -0.189 ± 0.087 | -0.00764 ± 0.076
2 | S41T | -0.0779 ± 0.073 | 0.0432 ± 0.23
3 | S41I | -0.555 ± 0.095 | -0.111 ± 0.075
4 | S41M | -0.324 ± 0.12 | -0.275 ± 0.13
5 | S41N | 0.227 ± 0.0049 | 0.191 ± 0.07
6 | S41G | 0.13 ± 0.042 | 0.151 ± 0.078
7 | S41P | 0.05 ± 0.043 | 0.242 ± 0.032
8 | S41V | -0.346 ± 0.08 | -0.321 ± 0.13
9 | S41R | -0.0662 ± 0.066 | -0.105 ± 0.13
10 | S41L | -0.183 ± 0.048 | -0.113 ± 0.25
11 | S41K | 0.0752 ± 0.051 | 0.0888 ± 0.15
12 | S41H | -0.018 ± 0.024 | -0.084 ± 0.085
13 | S41Q | -0.0311 ± 0.084 | -0.00859 ± 0.1
14 | S41W | -0.323 ± 0.066 | -0.244 ± 0.11
15 | G50M | -0.212 ± 0.057 | -0.248 ± 0.1
16 | G50H | -0.0998 ± 0.028 | -0.146 ± 0.042
17 | G50D | 0.0931 ± 0.035 | 0.091 ± 0.072
18 | G50Q | -0.0112 ± 0.037 | -0.106 ± 0.12
19 | G50C | -0.0957 ± 0.041 | -0.0637 ± 0.086
20 | G50E | 0.0403 ± 0.043 | -0.0226 ± 0.038
21 | G50K | -0.0875 ± 0.022 | -0.059 ± 0.028
22 | G50Y | -0.185 ± 0.02 | -0.315 ± 0.059
23 | G50T | -0.057 ± 0.016 | -0.0568 ± 0.17

Row | Variant | selection coefficient against synonymous wild-type codons (log2) (methotrexate 8.8 µM) | selection coefficient against synonymous wild-type codons (log2) (methotrexate 44 µM)
24 | G50F | -0.326 ± 0.042 | -0.159 ± 0.03
25 | G50P | -0.132 ± 0.062 | -0.135 ± 0.067
26 | G50A | -0.122 ± 0.06 | -0.118 ± 0.095
27 | G50I | -0.0516 ± 0.02 | -0.0297 ± 0.099
28 | G50W | -0.326 ± 0.13 | -0.174 ± 0.093
29 | G50L | -0.192 ± 0.05 | -0.203 ± 0.17
30 | G50R | -0.1 ± 0.039 | -0.0955 ± 0.089
31 | G50N | -0.00225 ± 0.017 | -0.108 ± 0.049
32 | G50V | -0.0301 ± 0.061 | -0.00888 ± 0.064
33 | G50S | -0.0451 ± 0.049 | 0.0223 ± 0.071
34 | L43V | -0.107 ± 0.083 | -0.103 ± 0.13
35 | L43F | -0.114 ± 0.039 | -0.201 ± 0.014
36 | L43K | 0.177 ± 0.021 | 0.122 ± 0.12
37 | L43T | 0.161 ± 0.034 | 0.152 ± 0.034
38 | L43I | -0.16 ± 0.052 | -0.143 ± 0.11
39 | L43G | 0.198 ± 0.06 | 0.156 ± 0.11
40 | L43S | 0.175 ± 0.036 | 0.152 ± 0.056
41 | L43E | 0.314 ± 0.056 | 0.223 ± 0.097
42 | L43A | 0.086 ± 0.065 | 0.0877 ± 0.077
43 | L43C | -0.0395 ± 0.076 | -0.0202 ± 0.083
44 | L43R | 0.108 ± 0.053 | 0.0659 ± 0.079
45 | L43W | -0.25 ± 0.19 | -0.141 ± 0.038
46 | L43Q | 0.157 ± 0.019 | 0.149 ± 0.034

Row | Variant | selection coefficient against synonymous wild-type codons (log2) (methotrexate 8.8 µM) | selection coefficient against synonymous wild-type codons (log2) (methotrexate 44 µM)
47 | L43P | 0.23 ± 0.039 | 0.225 ± 0.056
48 | L43H | 0.12 ± 0.016 | 0.104 ± 0.029
49 | L43N | 0.167 ± 0.049 | 0.19 ± 0.051
50 | L43M | -0.0166 ± 0.026 | 0.0179 ± 0.051
51 | L43Y | -0.119 ± 0.1 | -0.0938 ± 0.13
52 | G42P | 0.405 ± 0.026 | 0.428 ± 0.054
53 | G42W | -0.414 ± 0.19 | -0.0962 ± 0.028
54 | G42T | -0.0616 ± 0.094 | -0.0889 ± 0.15
55 | G42V | -0.212 ± 0.043 | -0.0887 ± 0.13
56 | G42I | -0.214 ± 0.074 | -0.203 ± 0.046
57 | G42M | -0.0396 ± 0.027 | -0.0446 ± 0.11
58 | G42N | 0.113 ± 0.013 | 0.154 ± 0.0022
59 | G42E | 0.128 ± 0.047 | 0.148 ± 0.053
60 | G42A | 0.00197 ± 0.045 | 0.0149 ± 0.15
61 | G42Y | -0.155 ± 0.034 | -0.303 ± 0.089
62 | G42D | 0.26 ± 0.015 | 0.267 ± 0.027
63 | G42H | -0.0498 ± 0.045 | -0.0914 ± 0.12
64 | G42C | -0.15 ± 0.077 | -0.0843 ± 0.069
65 | G42R | -0.05 ± 0.068 | -0.0634 ± 0.13
66 | G42K | -0.0565 ± 0.033 | -0.0825 ± 0.12
67 | G42F | -0.155 ± 0.14 | -0.0975 ± 0.12
68 | G42S | -0.0121 ± 0.037 | -0.035 ± 0.077
69 | G42L | 0.00889 ± 0.071 | 0.00597 ± 0.16

Row | Variant | selection coefficient against synonymous wild-type codons (log2) (methotrexate 8.8 µM) | selection coefficient against synonymous wild-type codons (log2) (methotrexate 44 µM)
70 | G42Q | -0.0471 ± 0.14 | -0.0425 ± 0.15
71 | N53C | -0.142 ± 0.099 | -0.163 ± 0.12
72 | N53E | 0.207 ± 0.0097 | 0.237 ± 0.029
73 | N53Q | -0.107 ± 0.093 | -0.0675 ± 0.12
74 | N53K | -0.396 ± 0.12 | -0.432 ± 0.049
75 | N53M | -0.172 ± 0.075 | -0.0739 ± 0.076
76 | N53G | 0.00437 ± 0.068 | 0.0549 ± 0.078
77 | N53P | 0.0287 ± 0.068 | 0.0334 ± 0.087
78 | N53L | -0.286 ± 0.082 | -0.141 ± 0.13
79 | N53F | -0.396 ± 0.15 | -0.247 ± 0.049
80 | N53A | 0.0871 ± 0.026 | 0.00474 ± 0.13
81 | N53H | -0.155 ± 0.085 | -0.117 ± 0.099
82 | N53D | 0.481 ± 0.0066 | 0.5938 ± 0.0022
83 | N53I | -0.114 ± 0.023 | 0.0145 ± 0.063
84 | M52H | -0.101 ± 0.053 | -0.061 ± 0.092
85 | M52Q | -0.113 ± 0.059 | -0.119 ± 0.1
86 | M52L | -0.0965 ± 0.066 | -0.0904 ± 0.17
87 | M52T | -0.0794 ± 0.069 | -0.0259 ± 0.17
88 | M52C | -0.088 ± 0.011 | -0.0761 ± 0.11
89 | M52D | -0.0962 ± 0.054 | -0.0779 ± 0.24
90 | M52F | -0.105 ± 0.029 | -0.119 ± 0.019
91 | M52K | -0.101 ± 0.064 | -0.0738 ± 0.098
92 | M52Y | -0.195 ± 0.068 | -0.171 ± 0.14

Row | Variant | selection coefficient against synonymous wild-type codons (log2) (methotrexate 8.8 µM) | selection coefficient against synonymous wild-type codons (log2) (methotrexate 44 µM)
93 | M52N | -0.114 ± 0.072 | -0.0913 ± 0.057
94 | M52A | -0.135 ± 0.069 | -0.198 ± 0.085
95 | M52S | -0.216 ± 0.071 | -0.159 ± 0.11
96 | M52I | -0.0381 ± 0.018 | 0.00581 ± 0.049
97 | M52R | -0.191 ± 0.15 | -0.156 ± 0.086
98 | M52P | -0.164 ± 0.13 | -0.16 ± 0.17
99 | M52W | -0.255 ± 0.083 | -0.0757 ± 0.049
100 | M52E | -0.0921 ± 0.059 | -0.152 ± 0.23
101 | M52G | -0.0875 ± 0.067 | -0.127 ± 0.16
102 | M52V | -0.0484 ± 0.037 | -0.031 ± 0.057
103 | T49Y | -0.163 ± 0.17 | -0.207 ± 0.029
104 | T49A | 0.00333 ± 0.022 | -0.0674 ± 0.13
105 | T49Q | -0.0375 ± 0.032 | 0.0934 ± 0.1
106 | T49L | -0.126 ± 0.086 | -0.0749 ± 0.087
107 | T49I | -0.131 ± 0.093 | -0.158 ± 0.1
108 | T49P | -0.0117 ± 0.041 | -0.11 ± 0.073
109 | T49M | -0.0881 ± 0.0036 | 0.0037 ± 0.092
110 | T49W | -0.452 ± 0.23 | -0.295 ± 0.076
111 | T49H | -0.158 ± 0.042 | -0.147 ± 0.056
112 | T49R | -0.167 ± 0.11 | -0.132 ± 0.12
113 | T49N | -0.102 ± 0.091 | -0.0933 ± 0.14
114 | T49E | 0.0825 ± 0.037 | 0.0404 ± 0.11
115 | T49G | -0.0474 ± 0.039 | -0.0333 ± 0.068
